Laboratory results published in paper PMC9911399, “Two distinct binding modes provide the RNA-binding protein RbFox with extraordinary sequence specificity”.
Residue numbers refer to the chain shown, from its start. This is one part of the list.

T1: RBFOX1 RRM RbFoxmut (Fox-RRM*) (Homo sapiens, UniProt Q9NWB1 109-208, R118D;E147R;N151S;E152T)
T1 sequence: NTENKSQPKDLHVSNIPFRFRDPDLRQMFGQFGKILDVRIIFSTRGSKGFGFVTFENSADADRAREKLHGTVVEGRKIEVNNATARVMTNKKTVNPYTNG

B1: UUAUGAA (DNA:RNA)
RNA: GGGAGACCGGAAUUCAGAUUGUCCUUAUGAAUUAAAUCCCGUCGUAGCCACCA
DNA 1: CAATCTGAATTCCGGTCTCCC
DNA 2: TGGTGGCTACGACGGGATT
B2: GUAGCUU (DNA:RNA)
RNA: B1 RNA with U25G, U28G, G29C, A30U, A31U
DNA 1: CAATCTGAATTCCGGTCTCCC
DNA 2: TGGTGGCTACGACGGGATT
B3: UGGUCAC (DNA:RNA)
RNA: B1 RNA with U26G, A27G, G29C, A31C
DNA 1: CAATCTGAATTCCGGTCTCCC
DNA 2: TGGTGGCTACGACGGGATT
B4: ACACUUU (DNA:RNA)
RNA: B1 RNA with U25A, U26C, U28C, G29U, A30U, A31U
DNA 1: CAATCTGAATTCCGGTCTCCC
DNA 2: TGGTGGCTACGACGGGATT
B5: UGAACGC (DNA:RNA)
RNA: B1 RNA with U26G, U28A, G29C, A30G, A31C
DNA 1: CAATCTGAATTCCGGTCTCCC
DNA 2: TGGTGGCTACGACGGGATT
B6: AUCCGAU (DNA:RNA)
RNA: B1 RNA with U25A, A27C, U28C, A31U
DNA 1: CAATCTGAATTCCGGTCTCCC
DNA 2: TGGTGGCTACGACGGGATT
B7: GGGCGUU (DNA:RNA)
RNA: B1 RNA with U25G, U26G, A27G, U28C, A30U, A31U
DNA 1: CAATCTGAATTCCGGTCTCCC
DNA 2: TGGTGGCTACGACGGGATT
B8: ACGUAUU (DNA:RNA)
RNA: B1 RNA with U25A, U26C, A27G, G29A, A30U, A31U
DNA 1: CAATCTGAATTCCGGTCTCCC
DNA 2: TGGTGGCTACGACGGGATT
B9: GCUUACG (DNA:RNA)
RNA: B1 RNA with U25G, U26C, A27U, G29A, A30C, A31G
DNA 1: CAATCTGAATTCCGGTCTCCC
DNA 2: TGGTGGCTACGACGGGATT
B10: GACUCGA (DNA:RNA)
RNA: B1 RNA with U25G, U26A, A27C, G29C, A30G
DNA 1: CAATCTGAATTCCGGTCTCCC
DNA 2: TGGTGGCTACGACGGGATT
B11: CUACUUC (DNA:RNA)
RNA: B1 RNA with U25C, U28C, G29U, A30U, A31C
DNA 1: CAATCTGAATTCCGGTCTCCC
DNA 2: TGGTGGCTACGACGGGATT
B12: CUCGUGU (DNA:RNA)
RNA: B1 RNA with U25C, A27C, U28G, G29U, A30G, A31U
DNA 1: CAATCTGAATTCCGGTCTCCC
DNA 2: TGGTGGCTACGACGGGATT
B13: GUCAAUU (DNA:RNA)
RNA: B1 RNA with U25G, A27C, U28A, G29A, A30U, A31U
DNA 1: CAATCTGAATTCCGGTCTCCC
DNA 2: TGGTGGCTACGACGGGATT
B14: ACGCGGC (DNA:RNA)
RNA: B1 RNA with U25A, U26C, A27G, U28C, A30G, A31C
DNA 1: CAATCTGAATTCCGGTCTCCC
DNA 2: TGGTGGCTACGACGGGATT
B15: CGCCUAA (DNA:RNA)
RNA: B1 RNA with U25C, U26G, A27C, U28C, G29U
DNA 1: CAATCTGAATTCCGGTCTCCC
DNA 2: TGGTGGCTACGACGGGATT
B16: GAGCUAA (DNA:RNA)
RNA: B1 RNA with U25G, U26A, A27G, U28C, G29U
DNA 1: CAATCTGAATTCCGGTCTCCC
DNA 2: TGGTGGCTACGACGGGATT
B17: GCGCCGG (DNA:RNA)
RNA: GGGAGACCGGAAUUCAGAUUGUCCGCGCCGGUUAAAUCCCGUCGUAGCCACCA
DNA 1: CAATCTGAATTCCGGTCTCCC
DNA 2: TGGTGGCTACGACGGGATT
B18: UCUUGUA (DNA:RNA)
RNA: B1 RNA with U26C, A27U, A30U
DNA 1: CAATCTGAATTCCGGTCTCCC
DNA 2: TGGTGGCTACGACGGGATT
B19: CGAAUUC (DNA:RNA)
RNA: B1 RNA with U25C, U26G, U28A, G29U, A30U, A31C
DNA 1: CAATCTGAATTCCGGTCTCCC
DNA 2: TGGTGGCTACGACGGGATT
B20: GGUCAGU (DNA:RNA)
RNA: B17 RNA with C26G, G27U, C29A, G31U
DNA 1: CAATCTGAATTCCGGTCTCCC
DNA 2: TGGTGGCTACGACGGGATT
B21: GUGUCUC (DNA:RNA)
RNA: B17 RNA with C26U, C28U, G30U, G31C
DNA 1: CAATCTGAATTCCGGTCTCCC
DNA 2: TGGTGGCTACGACGGGATT
B22: GUUUAGG (DNA:RNA)
RNA: B17 RNA with C26U, G27U, C28U, C29A
DNA 1: CAATCTGAATTCCGGTCTCCC
DNA 2: TGGTGGCTACGACGGGATT
B23: GGAGGCU (DNA:RNA)
RNA: B1 RNA with U25G, U26G, U28G, A30C, A31U
DNA 1: CAATCTGAATTCCGGTCTCCC
DNA 2: TGGTGGCTACGACGGGATT
B24: UAACGAU (DNA:RNA)
RNA: B1 RNA with U26A, U28C, A31U
DNA 1: CAATCTGAATTCCGGTCTCCC
DNA 2: TGGTGGCTACGACGGGATT
B25: AUUGGAC (DNA:RNA)
RNA: B1 RNA with U25A, A27U, U28G, A31C
DNA 1: CAATCTGAATTCCGGTCTCCC
DNA 2: TGGTGGCTACGACGGGATT
B26: AUUUAAC (DNA:RNA)
RNA: B1 RNA with U25A, A27U, G29A, A31C
DNA 1: CAATCTGAATTCCGGTCTCCC
DNA 2: TGGTGGCTACGACGGGATT
B27: AGCAUGG (DNA:RNA)
RNA: B17 RNA with G25A, C26G, G27C, C28A, C29U
DNA 1: CAATCTGAATTCCGGTCTCCC
DNA 2: TGGTGGCTACGACGGGATT
B28: AUCCAAU (DNA:RNA)
RNA: B1 RNA with U25A, A27C, U28C, G29A, A31U
DNA 1: CAATCTGAATTCCGGTCTCCC
DNA 2: TGGTGGCTACGACGGGATT
B29: UGUGGUA (DNA:RNA)
RNA: B1 RNA with U26G, A27U, U28G, A30U
DNA 1: CAATCTGAATTCCGGTCTCCC
DNA 2: TGGTGGCTACGACGGGATT
B30: UUCAACG (DNA:RNA)
RNA: B1 RNA with A27C, U28A, G29A, A30C, A31G
DNA 1: CAATCTGAATTCCGGTCTCCC
DNA 2: TGGTGGCTACGACGGGATT
B31: GUGGGCU (DNA:RNA)
RNA: B17 RNA with C26U, C28G, C29G, G30C, G31U
DNA 1: CAATCTGAATTCCGGTCTCCC
DNA 2: TGGTGGCTACGACGGGATT

target: T1, RBFOX1 RRM RbFoxmut (Fox-RRM*); test: EMSA; HiTS-Eq, 1 nM pool, 10 min; buffer printed only for the single-RNA assays: 10 mM Tris pH 7.5, 150 mM NaCl, 3.4 mM EDTA, 0.001% NP-40, 30 C; conditions: tags: His6 N-terminal (pET28a); label: 5' 32P
Procedure, shortened: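 Purified RbFox RRM (wild type or mutant) was equilibrated for 10 min in 50 µL with 1 nM of a 5′-radiolabelled pool of RNA with 7 randomized nucleotides, its flanks annealed to DNA oligonucleotides, across increasing protein concentrations. Free RNA was separated by 8% native PAGE, excised, reverse-transcribed, PCR-barcoded and sequenced on an Illumina HiSeq 2500. Relative association constants came from read-count changes of each variant against the control reaction, normalised to the cognate motif.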

Binder | binding signal
B1 | 0.104 KA relative to UGCAUGU
B2 | 0.0997 KA relative to UGCAUGU
B3 | 0.0874 KA relative to UGCAUGU
B4 | 0.0803 KA relative to UGCAUGU
B5 | 0.0965 KA relative to UGCAUGU
B6 | 0.094 KA relative to UGCAUGU
B7 | 0.115 KA relative to UGCAUGU
B8 | 0.122 KA relative to UGCAUGU
B9 | 0.128 KA relative to UGCAUGU
B10 | 0.144 KA relative to UGCAUGU
B11 | 0.0724 KA relative to UGCAUGU
B12 | 0.169 KA relative to UGCAUGU
B13 | 0.066 KA relative to UGCAUGU
B14 | 0.119 KA relative to UGCAUGU
B15 | 0.104 KA relative to UGCAUGU
B16 | 0.0915 KA relative to UGCAUGU

Binder | binding signal
B17 | 0.0967 KA relative to UGCAUGU
B18 | 0.236 KA relative to UGCAUGU
B19 | 0.076 KA relative to UGCAUGU
B20 | 0.106 KA relative to UGCAUGU
B21 | 0.144 KA relative to UGCAUGU
B22 | 0.0929 KA relative to UGCAUGU
B23 | 0.0786 KA relative to UGCAUGU
B24 | 0.028 KA relative to UGCAUGU
B25 | 0.0636 KA relative to UGCAUGU
B26 | 0.126 KA relative to UGCAUGU
B27 | 0.538 KA relative to UGCAUGU
B28 | 0.0787 KA relative to UGCAUGU
B29 | 0.22 KA relative to UGCAUGU
B30 | 0.114 KA relative to UGCAUGU
B31 | 0.096 KA relative to UGCAUGU
